# This is one part of the list.
# B1: SCA (Schizophyllum commune) (protein)
# chain: MGIDQGVYLITNAGSGTAATLKDGYVKGWERIKGKEQLNQLWFVKSVKTSASDPGYAAFNLATNKVLDLEKGLADRGTPILGWDYHEGDNQHWVIKKQADGKYYKIQSVKTQTFVDLNNGGKDNGTKIQGWVGSWDETNSHQRWVFNQFSATGSRIKSILDTHPKIHGKVIVEWPDRIYFTPDQYIFEAIWAKTGLADIKPRDPLFQSEAYEKVFKGWVVSRAQEIIKVDGFDILVGSLSLVEKSTQKIKVLDVSVRTSDDKSPDLSQIVFFDPESGRTLVDIPEGYEVNSVII
# Key:
# Assay in all cases: glycan array binding signal (z-score within array); higher = stronger binding
# Conditions in all cases: glycan notation: IUPAC condensed, linker removed
# Fuc(a1-2)Gal = molecular target: Fuc(a1-2)Gal
# Summary of the method: (§1)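 Glycan array data came from 3228 arrays in the Consortium for Functional Glycomics database, and only arrays with an available protein sequence were kept. Glycan names were put into IUPAC-condensed notation, and columns mapping to the same glycan were averaged. The binding signal is a within-array Z-score, averaged across arrays of one protein sequence run at different concentrations or buffers and across linkers. A negative Z-score can be read as non-binding.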
# Fuc(a1-2)Gal(b1-3)GalNAc = molecular target: Fuc(a1-2)Gal(b1-3)GalNAc
# Summary of the method: as §1
# [1] = molecular target: Fuc(a1-2)Gal(b1-3)GalNAc(a1-3)[Fuc(a1-2)]Gal(b1-4)Glc
# Summary of the method: as §1
# [2] = molecular target: Fuc(a1-2)Gal(b1-3)GalNAc(a1-3)[Fuc(a1-2)]Gal(b1-4)GlcNAc
# Summary of the method: as §1
# [3] = molecular target: Fuc(a1-2)Gal(b1-3)GalNAc(b1-3)Gal
# Summary of the method: as §1
# [4] = molecular target: Fuc(a1-2)Gal(b1-3)GalNAc(b1-3)Gal(a1-4)Gal(b1-4)Glc
# Summary of the method: as §1
# [5] = molecular target: Fuc(a1-2)Gal(b1-3)GalNAc(b1-4)[Neu5Ac(a2-3)]Gal(b1-4)Glc
# Summary of the method: as §1
# Fuc(a1-2)Gal(b1-3)GlcNAc = molecular target: Fuc(a1-2)Gal(b1-3)GlcNAc
# Summary of the method: as §1
# [6] = molecular target: Fuc(a1-2)Gal(b1-3)GlcNAc(b1-2)Man(a1-3)[Fuc(a1-2)Gal(b1-3)GlcNAc(b1-2)Man(a1-6)]Man(b1-4)GlcNAc(b1-4)GlcNAc
# Summary of the method: as §1
# [7] = molecular target: Fuc(a1-2)Gal(b1-3)GlcNAc(b1-2)Man(a1-3)[Fuc(a1-2)Gal(b1-3)GlcNAc(b1-2)Man(a1-6)]Man(b1-4)GlcNAc(b1-4)[Fuc(a1-6)]GlcNAc
# Summary of the method: as §1
# [8] = molecular target: Fuc(a1-2)Gal(b1-3)GlcNAc(b1-3)Gal(b1-4)Glc
# Summary of the method: as §1
# [9] = molecular target: Fuc(a1-2)Gal(b1-3)GlcNAc(b1-3)GalNAc
# Summary of the method: as §1
# [10] = molecular target: Fuc(a1-2)Gal(b1-3)GlcNAc(b1-3)[Fuc(a1-3)[Gal(b1-4)]GlcNAc(b1-6)]Gal(b1-4)Glc
# Summary of the method: as §1
# [11] = molecular target: Fuc(a1-2)Gal(b1-3)GlcNAc(b1-3)[Gal(b1-4)GlcNAc(b1-6)]Gal(b1-4)Glc
# Summary of the method: as §1
# [12] = molecular target: Fuc(a1-2)Gal(b1-3)GlcNAc(b1-3)[Neu5Ac(a2-6)Gal(b1-4)GlcNAc(b1-6)]Gal(b1-4)Glc
# Summary of the method: as §1
# [13] = molecular target: Fuc(a1-2)Gal(b1-3)[Fuc(a1-4)]GlcNAc
# Summary of the method: as §1
# [14] = molecular target: Fuc(a1-2)Gal(b1-3)[Fuc(a1-4)]GlcNAc(b1-2)Man(a1-3)[Fuc(a1-2)Gal(b1-3)[Fuc(a1-4)]GlcNAc(b1-2)Man(a1-6)]Man(b1-4)GlcNAc(b1-4)GlcNAc
# Summary of the method: as §1
# [15] = molecular target: Fuc(a1-2)Gal(b1-3)[Fuc(a1-4)]GlcNAc(b1-3)[Fuc(a1-3)[Gal(b1-4)]GlcNAc(b1-6)]Gal(b1-4)Glc
# Summary of the method: as §1
# [16] = molecular target: Fuc(a1-2)Gal(b1-3)[Fuc(a1-4)]GlcNAc(b1-3)[Gal(b1-4)GlcNAc(b1-6)]Gal(b1-4)Glc
# Summary of the method: as §1
# Fuc(a1-2)Gal(b1-4)Glc = molecular target: Fuc(a1-2)Gal(b1-4)Glc
# Summary of the method: as §1
# Fuc(a1-2)Gal(b1-4)Glc6S = molecular target: Fuc(a1-2)Gal(b1-4)Glc6S
# Summary of the method: as §1
# Fuc(a1-2)Gal(b1-4)GlcNAc = molecular target: Fuc(a1-2)Gal(b1-4)GlcNAc
# Summary of the method: as §1
# [17] = molecular target: Fuc(a1-2)Gal(b1-4)GlcNAc(b1-2)Man(a1-3)[Fuc(a1-2)Gal(b1-4)GlcNAc(b1-2)Man(a1-6)]Man(b1-4)GlcNAc(b1-4)GlcNAc
# Summary of the method: as §1
# [18] = molecular target: Fuc(a1-2)Gal(b1-4)GlcNAc(b1-2)Man(a1-3)[Fuc(a1-2)Gal(b1-4)GlcNAc(b1-2)Man(a1-6)]Man(b1-4)GlcNAc(b1-4)[Fuc(a1-6)]GlcNAc
# Summary of the method: as §1
# [19] = molecular target: Fuc(a1-2)Gal(b1-4)GlcNAc(b1-2)[Fuc(a1-2)Gal(b1-4)GlcNAc(b1-4)]Man(a1-3)[Fuc(a1-2)Gal(b1-4)GlcNAc(b1-2)Man(a1-6)]Man(b1-4)GlcNAc(b1-4)GlcNAc
# Summary of the method: as §1
# [20] = molecular target: Fuc(a1-2)Gal(b1-4)GlcNAc(b1-3)Gal(b1-4)GlcNAc
# Summary of the method: as §1
# [21] = molecular target: Fuc(a1-2)Gal(b1-4)GlcNAc(b1-3)Gal(b1-4)GlcNAc(b1-3)Gal(b1-4)GlcNAc
# Summary of the method: as §1
# [22] = molecular target: Fuc(a1-2)Gal(b1-4)GlcNAc(b1-3)GalNAc
# Summary of the method: as §1
# [23] = molecular target: Fuc(a1-2)Gal(b1-4)GlcNAc(b1-3)[Fuc(a1-2)Gal(b1-4)GlcNAc(b1-6)]GalNAc
# Summary of the method: as §1
# [24] = molecular target: Fuc(a1-2)Gal(b1-4)GlcNAc6S
# Summary of the method: as §1
binder,measurement,setting,value
B1,glycan array binding signal (z-score),Fuc(a1-2)Gal,-0.159
same,glycan array binding signal (z-score),Fuc(a1-2)Gal(b1-3)GalNAc,-0.163
same,glycan array binding signal (z-score),[1],-0.159
same,glycan array binding signal (z-score),[2],-0.161
same,glycan array binding signal (z-score),[3],-0.162
same,glycan array binding signal (z-score),[4],-0.162
same,glycan array binding signal (z-score),[5],-0.162
same,glycan array binding signal (z-score),Fuc(a1-2)Gal(b1-3)GlcNAc,-0.151
same,glycan array binding signal (z-score),[6],-0.158
same,glycan array binding signal (z-score),[7],-0.157
same,glycan array binding signal (z-score),[8],-0.135
same,glycan array binding signal (z-score),[9],-0.157
same,glycan array binding signal (z-score),[10],-0.157
same,glycan array binding signal (z-score),[11],-0.16
same,glycan array binding signal (z-score),[12],-0.139
same,glycan array binding signal (z-score),[13],-0.163
same,glycan array binding signal (z-score),[14],-0.161
same,glycan array binding signal (z-score),[15],-0.164
same,glycan array binding signal (z-score),[16],-0.062
same,glycan array binding signal (z-score),Fuc(a1-2)Gal(b1-4)Glc,-0.153
same,glycan array binding signal (z-score),Fuc(a1-2)Gal(b1-4)Glc6S,-0.16
same,glycan array binding signal (z-score),Fuc(a1-2)Gal(b1-4)GlcNAc,-0.158
same,glycan array binding signal (z-score),[17],-0.158
same,glycan array binding signal (z-score),[18],-0.16
same,glycan array binding signal (z-score),[19],-0.156
same,glycan array binding signal (z-score),[20],-0.16
same,glycan array binding signal (z-score),[21],-0.161
same,glycan array binding signal (z-score),[22],-0.159
same,glycan array binding signal (z-score),[23],0.327
same,glycan array binding signal (z-score),[24],-0.148
